In the RNAGym collection of RNA variant scans (doi:10.1093/nar/gkz1192):
Read counts are not given, so values of variants with three or more changes are uncertain.

B1: CPEB3 Ribozyme (parent)
chain: UAACAGGGGGCCACAGCAGAAGCGUUCACGUCGCAGCCCCUGUCAGAUUCUGGUGAAUCUGCGAAUUCUGCUGUAUAUCUC

Variants of: B1
Experiment: self-cleavage, relative activity (ratio to wild type); higher = more cleavage; in vitro, sequencing
Outline: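 Barcoded CPEB3 ribozyme mutants, produced by rounds of error-prone PCR, self-cleaved while being transcribed with T7 RNA polymerase for 5 hours at 37°C and during a subsequent 15 min DNase I step before EDTA was added. Sequencing of template-switched cDNA on Illumina gave cleaved and total reads, and DNA sequencing assigned barcodes to variants. Each variant's relative activity is its cleaved/total read fraction divided by the unmutated ribozyme's fraction, averaged across three batches. A variant needed a minimum of 5 reads.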
With A28G U58C U60C A75G the self-cleavage was 0.07.
In the case of C27U U54C A56G U66C A75U, the self-cleavage is reported as 0.
With A28G U43C U54C U69A A75U U80A the self-cleavage was 0.15.
With A28G A45G U54A G63C the self-cleavage was 0.37.
With A28G C29U C39A G55U U69C A77U the self-cleavage was 0.11.
In the case of C27U U49A A57G G63A, the self-cleavage is reported as 0.08.
Variant A28G A35U U78C has a self-cleavage of 0.24.
With A28G U31A U60C U72A the self-cleavage was 0.09.
A28G A45G A56G showed a self-cleavage of 0.18.
A28G U51A U58C G61A showed a self-cleavage of 0.2.
In the case of A28G U41C U66C, the self-cleavage is reported as 0.2.
A28G C38U U58G U66A gave a self-cleavage of 0.12.
Variant A28G G42A U72C has a self-cleavage of 0.18.
For A28G A35U U60C U72A, the self-cleavage was 0.09.
For A28G G33U A35U U41C A64G, the self-cleavage was 0.06.
In the case of A28G U41C G42A U69C, the self-cleavage is reported as 0.12.
With A28G U49C A64G G73A U76C the self-cleavage was 0.18.
A28G C29U A35G U69A gave a self-cleavage of 0.23.
With A28G A47G G61A C71G U74A the self-cleavage was 0.16.
A28G G30A C38A U48C U74C showed a self-cleavage of 0.18.
In the case of A28G G30A G33U A45G U48C U54C U72C, the self-cleavage is reported as 0.08.
A28G G33U A57G U76C A77G showed a self-cleavage of 0.13.
In the case of A28G A45G A75G, the self-cleavage is reported as 0.51.
In the case of A28C C38A U48C A65G U67A U80C, the self-cleavage is reported as 0.1.
For A28G A35U U54C U60C U72A, the self-cleavage was 0.15.
For A28G G61C U69C, the self-cleavage was 0.15.
In the case of C27U C39U A45C, the self-cleavage is reported as 0.2.
Variant C27G G33U U43C G63U has a self-cleavage of 0.14.
In the case of A28C U67C U69C A75G, the self-cleavage is reported as 0.11.
With A28C A35U U41C U67C the self-cleavage was 0.07.
Variant A28G U48A A77U has a self-cleavage of 0.18.
Variant A28G U41A U60A U78A has a self-cleavage of 0.15.
Variant A28G C44A C62U has a self-cleavage of 0.16.
In the case of A28G U51A U66A U78C, the self-cleavage is reported as 0.12.
For A28G U43C A64G A65U G73A, the self-cleavage was 0.2.
Variant A28G G46U U58C has a self-cleavage of 0.08.
Variant A28G A35G U69G has a self-cleavage of 0.7.
In the case of A28G C39G U49C U58A U66C G70A, the self-cleavage is reported as 0.06.
With A28G A45G G73A the self-cleavage was 0.71.
In the case of A28C U51A U54C U58A, the self-cleavage is reported as 0.16.
In the case of A28G C40U G53C C68U U78G, the self-cleavage is reported as 0.16.
In the case of A28G U31A G73A, the self-cleavage is reported as 0.96.
For A28G U31C U72A U80C, the self-cleavage was 0.72.
Variant A28G U48G A56U A75G has a self-cleavage of 0.11.
A28C U66C U74C A75G gave a self-cleavage of 0.23.
With A28G U54C U58C A65G U74G the self-cleavage was 0.17.
With A28G A65G U69C U72A the self-cleavage was 0.12.
With A28G A47U A57G A64G U69C the self-cleavage was 0.05.
In the case of A28G U31C A64U U66C A75G, the self-cleavage is reported as 0.11.
Variant A28G G46A U54C has a self-cleavage of 0.08.
A28G U43G G46A gave a self-cleavage of 0.07.
For C27A U66C U78C, the self-cleavage was 0.14.
Work on A28G C38U U51C G52U U54C yielded a self-cleavage of 0.11.
A28G U60C U78C showed a self-cleavage of 0.11.
Variant A28G U60C U78G has a self-cleavage of 0.18.
A28G U43C G63A gave a self-cleavage of 0.19.
Work on A28G U41A U54C U58C U60A U72A yielded a self-cleavage of 0.08.
For A28G C37U U74C, the self-cleavage was 0.76.
For A28G A47G U49A U67A, the self-cleavage was 0.08.
A28G U31A A45G A56G A65G U72C gave a self-cleavage of 0.04.
A28G U41A U60C showed a self-cleavage of 0.08.
For C27G A35G A45U A77G, the self-cleavage was 0.08.
A28G U41C U54C C62A U66C showed a self-cleavage of 0.15.
With A28G G36A U41A U43C U78A the self-cleavage was 0.2.
Work on A28C A47G U51A U78C yielded a self-cleavage of 0.25.
A28G C38G U48C U76C showed a self-cleavage of 0.04.
Work on A28G G33A U66C yielded a self-cleavage of 0.52.
A28G U60G U69A showed a self-cleavage of 0.14.
C27U U54A A56G U78C showed a self-cleavage of 0.12.
With A28C A56G U80A the self-cleavage was 0.61.
In the case of A28G C32U U48C U51A U60C U67C C79U, the self-cleavage is reported as 0.03.
For A28G A35G C40A U54G, the self-cleavage was 0.19.
In the case of A28G C32A G52A A75G, the self-cleavage is reported as 0.14.
Work on A28G U51G U54C yielded a self-cleavage of 0.45.
A28G A64U A65G gave a self-cleavage of 0.14.
Work on A28G G42C U43C U67C yielded a self-cleavage of 0.15.
A28G U43A U54C U74A gave a self-cleavage of 1.14.
A28G U60C G61A gave a self-cleavage of 0.37.
With A28G G53A A64C U67C the self-cleavage was 0.11.
Variant A28G U54C U60A has a self-cleavage of 0.3.
For A28G A47G U51A, the self-cleavage was 0.58.
With A28G A45G U48C U51G A56G U66C the self-cleavage was 0.16.
Work on A28G C32U U49C U69A yielded a self-cleavage of 0.04.
